Measurements from PubChem BioAssay AID652104 (National Center for Advancing Translational Sciences (NCATS), 2013).
The campaign covered roughly 410,000 compounds. About 7,200 (1.8%) were called active. Inconclusive means that the source gave no clear call. Such entries were picked first, then a sample of the others. Calls follow the shape of the dose curve; as a rule, active = well fitted activation curve with a large enough effect; inconclusive = small, poorly fitted or top-dose-only effect, or another doubt; inactive = no such curve, though single readings can be large or run the other way. Where the call is inconclusive, the potency comes from a doubtful curve fit.

experiment: qHTS of TDP-43 Inhibitors; conditions: TDP-43 expressing yeast growth rescue, BacTiter-Glo, 24 h; series mostly up to 46.1 µM; also: nearly all actives have a fitted effect of over 50% in size
Method in brief: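 Yeast expressing TDP-43 (pregrown in raffinose, seeded at OD600=0.02 in galactose medium) exposed to compounds 24 hr at 30 deg C. Growth read by BacTiter-Glo luminescence; rescue of toxicity appears as increased signal.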
Potency is read from the fitted curve at half-maximal effect; tags tell the direction and shape of the fitted curve.

Potency, inconclusive:
CSc1ccc(/C=N/n2c(C)cc(C)cc2=O)cc1 15.8 µM [activator, single point]
CCC1CCCCN1C(=O)Cn1c(=O)cc(C(F)(F)F)c2c(C)nn(C)c21 (centres undefined) 11.2 µM [activator, partial curve]
Cc1nc(N2CCOCC2)c2c(C)c(C(=O)Nc3ccc(C(F)(F)F)cc3)sc2n1 25.1 µM [activator, single point]
CCOC(=O)C1CCN(C(=O)COc2cc(C)c(Br)c(C)c2)CC1 15.8 µM [activator, partial curve]
Cc1ccc(C)c(C(=O)CN2C(=O)NC3(CCC(C)CC3)C2=O)c1 (centres undefined) 11.2 µM [activator, partial curve]
Cc1ccc2c(c1)/C(=C/c1ccc(F)cc1)C(=O)N2 20 µM [activator, single point]
O=C(NC1CCCCCCC1)c1ccc2c(c1)OCO2 15.8 µM [activator, single point]
O=C1C2C3CC(C(Br)C3Br)C2C(=O)N1c1ccccn1 (centres undefined) 3.98 µM [activator, single point]
Cc1cccc(N2C(=O)CC(Sc3ccccc3C(=O)O)C2=O)c1 (centres undefined) 5.62 µM [activator, single point]
Cc1ccc(C(=O)CC(=O)c2cccc(F)c2)c(O)c1 11.2 µM [activator, partial curve]
Cc1ccc([C@H]2C(C(=O)O)=C[C@@H](CC3CCCC3)N2S(=O)(=O)c2ccc(C)cc2)cc1 35.5 µM [activator, single point]
CCOC(=O)/C=C/c1cccc(C)c1O 35.5 µM [activator, partial curve]
COc1cccc(C(=O)OCC(=O)c2ccc(Br)s2)c1 11.2 µM [activator, single point]
COc1cccc(CNC(=O)CCCSc2ccccc2)c1 14.1 µM [activator, partial curve]
CCSc1nnc(NC(=O)c2ccc(C)o2)s1 15.8 µM [activator, partial curve]

Potency, inactive:
CCN(CC)c1ccc(CNc2nc3ccccc3n2CCN2CCOCC2)cc1
COc1ccccc1C(=O)COC(=O)c1cnc(C)cn1
C=CCn1c(N)c(C(=O)Nc2ccc(C)c(C)c2)c2nc3ccccc3nc21

Potency, active:
Cc1ccc(C)c(NS(=O)(=O)c2ccc(-c3coc(C)n3)cc2)c1 12.6 µM
